Measurements from US20230241168A1 (ALPINE IMMUNE SCIENCES, published 2023).

T1: recombinant human APRIL (human, UniProt O75888 105-250, limits assumed)
T1 sequence (looked up): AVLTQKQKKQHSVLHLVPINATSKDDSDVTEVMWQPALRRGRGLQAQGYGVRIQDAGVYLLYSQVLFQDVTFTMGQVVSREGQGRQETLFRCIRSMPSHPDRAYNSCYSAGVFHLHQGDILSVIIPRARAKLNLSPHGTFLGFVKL


Columns and labels:
recombinant human APRIL = molecular target: T1, recombinant human APRIL; experiment: cell-based or functional assay
recombinant human BAFF = recombinant human BAFF (human, UniProt Q9Y275 in part); experiment: cell-based or functional assay

Row | Binder | IC50 (nM) APRIL (recombinant human APRIL) [nM] | IC50 APRIL (Δ Parental vTD) (recombinant human APRIL) [ratio] | IC50 (nM) BAFF (recombinant human BAFF) [nM] | IC50 BAFF (Δ Parental vTD) (recombinant human BAFF) [ratio]
1 | CTLA 4 668 (G4S)2 Fc (G4S)2 TACI 516 (Fc fusion) [about 120 residues with changes skipped]GGGGSGGGGSEPKSSDKTHTCPPCPAPEAEGAPSVFLFPPKPKDTLMISRTPEVTCVVVDVSHEDPEVKFNWYVDGVEVHNAKTKPREEQYNSTYRVVSVLTVLHQDWLNGKEYKCKVSNKALPAPIEKTISKAKGQPREPQVYTLPPSRDELTKNQVSLTCLVKGFYPSDIAVEWESNGQPENNYKTTPPVLDSDGSFFLYSKLTVDKSRWQQGNVFSCSVMHEALHNHYTQKSLSLSPGGGGGSGGGGSVAMRSCPEEQYWDPLLGTCMSCKTICNHQSQRTCAAFCRSLSCRKEQGKFYDHLLRDCISCASICGQHPKQCAYFCENKLRS | 20 | 2.2 | 10.1 | 3.9
2 | CTLA-4 92 Fc K + BCMA 357 Fc H (Fc fusion) chain 1: KAMHVAQPAVVLASSRGIASFVCEYASPWKATEVRVTVLRQADSQVTEVCAATYMMGSELTFPDDSICTGTSSGNQVNLTIRGLRAMDTGLYICKVEQMYPPPYLLGIGNGTQIYVIDPEPCPDSDGSGGGGSEPKSSDKTHTCPPCPAPEAEGAPSVFLFPPKPKDTLMISRTPEVTCVVVDVSHEDPEVKFNWYVDGVEVHNAKTKPREEQYNSTYRVVSVLTVLHQDWLNGKEYKCKVSNKALPAPIEKTISKAKGQPREPQVYTLPPCREEMTKNQVSLWCLVKGFYPSDIAVEWESNGQPENNYKTTPPVLDSDGSFFLYSKLTVDKSRWQQGNVFSCSVMHEALHNHYTQKSLSLSPG chain 2: LQMAGQCSQNEYFDSLLYACIPCQLRCSSNTPPLTCQRYCNASVTNSVKGTNAGSGGGGS[human IgG1 Fc with changes skipped] | 4.19 | – | 5.38 | –

Next, values leading:

Row | IC50 (nM) APRIL (recombinant human APRIL) [nM] | IC50 APRIL (Δ Parental vTD) (recombinant human APRIL) [ratio] | IC50 (nM) BAFF (recombinant human BAFF) [nM] | IC50 BAFF (Δ Parental vTD) (recombinant human BAFF) [ratio] | Binder
3 | 19.1 | 2.1 | 9.46 | 3.7 | CTLA-4 WT ECD 1 (G4S)2 Fc (G4S)2 TACI 516 (Fc fusion) [about 120 residues with changes skipped]GGGGSGGGGSEPKSSDKTHTCPPCPAPEAEGAPSVFLFPPKPKDTLMISRTPEVTCVVVDVSHEDPEVKFNWYVDGVEVHNAKTKPREEQYNSTYRVVSVLTVLHQDWLNGKEYKCKVSNKALPAPIEKTISKAKGQPREPQVYTLPPSRDELTKNQVSLTCLVKGFYPSDIAVEWESNGQPENNYKTTPPVLDSDGSFFLYSKLTVDKSRWQQGNVFSCSVMHEALHNHYTQKSLSLSPGGGGGSGGGGSVAMRSCPEEQYWDPLLGTCMSCKTICNHQSQRTCAAFCRSLSCRKEQGKFYDHLLRDCISCASICGQHPKQCAYFCENKLRS
4 | 5.2 | – | 5.15 | – | CTLA-4 113 Fc K/BCMA 357 Fc H (Fc fusion) chain 1: KAMHVAQPAVVLASSRGIASFVCEYASPWKATEVRVTVLRQADSQVTEVCAATYMMGSELTFPDDSICTGTSSGNQVNLTIRGLRAMDTGLYICKVEQMYPPPYLLGIGNGTQIYVIDPEPCPDSDGSGGGGSEPKSSDKTHTCPPCPAPEAEGAPSVFLFPPKPKDTLMISRTPEVTCVVVDVSHEDPEVKFNWYVDGVEVHNAKTKPREEQYNSTYRVVSVLTVLHQDWLNGKEYKCKVSNKALPAPIEKTISKAKGQPREPQVYTLPPCREEMTKNQVSLWCLVKGFYPSDIAVEWESNGQPENNYKTTPPVLDSDGSFFLYSKLTVDKSRWQQGNVFSCSVMHEALHNHYTQKSLSLSPG chain 2: LQMAGQCSQNEYFDSLLYACIPCQLRCSSNTPPLTCQRYCNASVTNSVKGTNAGSGGGGS[human IgG1 Fc with changes skipped]
